# Test results taken from publication PMC12040169 (PLOS Biology, 2025).
# Some of the results follow.
# Tested on: T1, C. trachomatis L2/434/Bu expressing GFP (CTL2-GFP)
# T1 construct: L2/434/Bu GFP intracellular growth in HeLa cells
# Design: species or system HeLa; C. trachomatis total inclusion area by high-content imaging, normalised to DMSO
# Conditions: total inclusion area; 28.5 h, 10 µM; inhibitor
# In short: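 Following bulk GFP and resorufin fluorescence reads, infected cells were fixed, Hoechst-stained and imaged on a high-content platform. Inclusion total area and number per well served as growth proxies; nuclei counts indicated host viability. MICs were derived as for the fluorescence assay.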
row,Structure (SMILES),% of control remaining
1,CCOC(=O)c1c(NC(=O)CSc2nncn2C)sc(C)c1C [CBK267970],107.222
2,O=C(Nc1ccc(C2(c3ccc(NC(=O)c4cccc5ccccc45)cc3)c3ccccc3-c3ccccc32)cc1)c1cccc2ccccc12 [CBK261163],84.5068
3,Cc1cc(OCC(=O)Nc2ccccc2N2CCN(S(C)(=O)=O)CC2)ccc1Cl [CBK269410],71.2275
4,OC(CN1CCC(O)(c2ccc(F)cc2)CC1)c1ccc(-c2ccccc2)cc1 (centres unmarked) [CBK286328],67.3196
5,CCCCn1nc(C(=O)N2CCCCC2c2ncc(-c3cccc(F)c3)[nH]2)ccc1=O (centres unmarked) [CBK291149],97.1609
6,COc1cccc(C(=O)N2CCN(C(=O)Nc3ccccc3Br)CC2)c1 [CBK154783],99.6297
7,CN(C)CCNC(=O)c1cncc(-c2ccc(C(=O)N3CCOCC3)cc2)c1 [CBK158619],85.0528
8,CCc1ccc(CNC(=O)Cn2nnc(-c3ccc(CN4CCC(C)CC4)cn3)n2)cc1 [CBK153928C],71.1226
9,O=C(NCCS(=O)(=O)c1ccccc1)c1cnc(-c2ccc(Cl)cc2)c(-c2ccncc2)c1 [CBK037587],78.1681
10,O=C1NC2=C(C(=O)N(CC3CCCO3)C2)C(c2cccc(F)c2)N1 (centres unmarked) [CBK282364],69.8591
11,COc1ccc(S(=O)(=O)n2ccc3cc(N4CCN(C)CC4)ccc32)cc1OC [CBK000286C],75.8258
12,COCCNC(=O)C(Cc1ccc(-c2ccc(S(C)(=O)=O)cc2)cc1)C1CCN(C(=O)OC(C)(C)C)CC1 (centres unmarked) [CBK173129],91.4453
13,COc1cc(C(C)=O)ccc1OC(=O)CN1C(=O)c2ccccc2C1=O [CBK262392],108.044
14,OCCn1c(-c2ccc(Br)cc2)cn2c3ccccc3nc12 [CBK262167],97.4219
15,CCn1c(CN2CCN(Cc3ccc4c(c3)OCO4)CC2)n[nH]c1=S [CBK013828],102.737
16,CCn1nc(C)c(CN(C)C(=O)C2CC=CCC2C(=O)O)c1C (centres unmarked) [CBK286884],68.6139
17,Cn1c(=O)c2c(ncn2CC(=O)Nc2ccccc2C#N)n(C)c1=O [CBK133465],87.8474
18,CCCCSc1nc(N)cc(N2CCC3(CCNC(=O)CC3)CC2)n1 [CBK307001],46.6943
19,Cc1c(Br)c(C(F)(F)F)nn1CC(=O)Nc1ccc(Oc2cc([N+](=O)[O-])cc([N+](=O)[O-])c2)cc1 [CBK262558],86.3117
20,COC(=O)[C@@H](C)NC(=O)[C@H]1CN(C(=O)c2cccnc2)CCN1C(=O)NC1CCCCC1 [CBK289632],107.547
21,CN1CCN(Cc2c(O)ccc3cc(-c4ccc(F)cc4)c(=O)oc23)CC1 [CBK267976],93.8662
22,O=C(CSc1ccc(Cl)cc1)Nc1cccc2nsnc12 [CBK267936],107.322
23,COc1cc(CNc2cc(-c3ccc4c(c3)OCO4)ncn2)cc(OC)c1OC [CBK037822],65.0211
24,COCCc1noc(CC2CCN(c3cc(C)ncc3C#N)CC2)n1 [CBK304092],59.4254
25,Cc1nn(C)cc1CN(C)S(=O)(=O)c1cccc([N+](=O)[O-])c1 [CBK265399],112.134
26,CCCC(=O)N1CCC(c2cc(C(F)F)c3c(C)noc3n2)CC1 [CBK285304],75.9396

row,Structure (SMILES),% of control remaining
1,COc1ccc(Oc2nccnc2N2CCN(Cc3ccc(C(F)(F)F)cc3)CC2)cc1OC [CBK083044T],77.4611
2,CC(C)(C)n1ncc2c(=O)n(CC(=O)Nc3ccccc3)cnc21 [CBK287541],79.4798
3,O=C(O)/C=C/c1cccc(-c2cn3ccnc3c(NCc3cccnc3)n2)c1 [CBK066283],130.216
4,COc1cccc(CN2CCN(C(=O)c3cccc(F)c3)CC2)c1OC [CBK074527],78.3055
5,O=C1NC[C@@H](Cc2ccccc2)NC(=O)C2(C/C=C/COc3ccccc31)CCN(Cc1ncccc1F)CC2 [CBK292193],94.5843
6,O=C(CSc1nc(-c2cccs2)cc(C(F)(F)F)n1)NN1CCOCC1 [CBK307375],79.3733
7,CC(=O)Nc1ccc(NC(=O)CCn2c(-c3cccc(C)c3)n[nH]c2=S)cc1Cl [CBK296656],67.1291
8,Cn1ccc2ccc(C(=O)Nc3nccs3)cc21 [CBK287910],107.371
9,Cc1nc(COc2ccc(C(=O)N3CCCC(C(N)=O)C3)cc2)no1 (centres unmarked) [CBK305660],73.3559
10,C=CCN1C(=O)C2(CC(=O)N(Cc3ccccc3)C2=O)c2cc(OC)ccc21 (centres unmarked) [CBK075281],99.4713
11,CCN(Cc1cnc(C)s1)[C@H]1CCO[C@@H](c2ccccc2-c2ccc(OC)cc2)C1 [CBK285853],65.3377
12,CC(=O)Nc1cccc(-n2nnnc2SCC2CCCN(C)C2)c1 (centres unmarked) [CBK305294],69.731
13,O=C(O)c1cc(Br)cc2c3c([nH]c12)CCCC3 [CBK100973],85.3478
14,O=C(CN1C(=O)COc2ccc(Cl)cc21)Nc1ccc2[nH]c(=O)[nH]c2c1 [CBK268295],68.7386
15,CCCc1c(C)nc2ccc(C)cc2c1SCC(=O)O [CBK263537],114.889
16,CCOC(=O)n1c(=O)n2n(c1=O)CC=CC2 [CBK023102],70.6729
17,CC(C)(C)NC(=O)N1CCC(=O)N1 [CBK007341],98.1016
18,CC(=O)NC[C@@H]1C=C(C)[C@H](CC(=O)Nc2ccccn2)C[C@H]1C(C)C [CBK289209],94.6384
19,CC1=NNC(=O)C1Cc1ccc(F)cc1 (centres unmarked) [CBK067755],66.227
20,O=C1NC2(CCc3ccccc31)CCN(C(=O)c1ccncc1)C2 (centres unmarked) [CBK283336],86.0036
21,Cn1nnc2cc(NCC3(CNC(=O)OC(C)(C)C)CC3)ccc21 [CBK304777],80.8336
22,CCNS(=O)(=O)c1ccc2c(c1)N(Cc1n[nH]c(CC)n1)CC2 [CBK306434],72.9812
23,Nc1cc2cccnc2nc1-c1ccc(OC(F)(F)F)cc1 [CBK067616],107.218
24,Nc1cc2cccnc2c(-c2ccc3c(c2)CCO3)n1 [CBK081173],113.751
25,Cc1ccc(N(CC(=O)N/N=C2\C(=O)Nc3ccccc32)S(=O)(=O)c2ccccc2)cc1 [CBK262169],90.241
26,Nc1nc(NCCOc2ccccc2F)cc(C2CCOC2)n1 (centres unmarked) [CBK306559],64.0141

row,Structure (SMILES),% of control remaining
1,CS(=O)(=O)c1ccc(-c2ccc3c(c2)CN(C2CCN(C(=O)c4ccccc4)CC2)CCO3)cc1 [CBK169265],69.566
2,O=C(CSc1cnn[nH]1)Nc1ccccc1F [CBK269903],57.8502
3,CCN(CC)CCCOC1(C)SC(NC2CCCCCC2)=NC1=O (centres unmarked) [CBK113510],49.4414
4,Cc1ccc(CNC(=O)c2ccc3c(c2)nc(N2CC[C@H](O)C2)n3C)s1 [CBK306837],58.3122
5,Fc1ccc(-c2cn3ccnc3c(NC3CC3)n2)cc1F [CBK066692],115.517
6,CC1CCN(C(=O)C[C@@H]2O[C@H](CNC(=O)C3CC3)[C@@H](O)[C@H]2O)CC1 [CBK288926],76.5352
7,O=C(c1sccc1Br)N1CCN(Cc2ccc3c(c2)OCO3)CC1 [CBK074730],52.5232
8,CC(C)(CC(=O)O)CC(=O)N1CCCC1c1nc(-c2ccccc2)c2ccccn12 (centres unmarked) [CBK046399],97.3942
9,CCn1nc(CO)c2c1CCN(CC(=O)NCc1cccs1)C2 [CBK307638],77.6007
10,CC(C)(C)c1ccc(S(N)(=O)=O)cc1NC(=O)Nc1cccc(F)c1 [CBK093643],90.3702
11,O=C1CCCC2=C1C(c1ccc(OCc3ccccc3)cc1)c1c([nH][nH]c1=O)N2 (centres unmarked) [CBK288149],108.802
12,Fc1ccc(-c2noc(C3CCN(CCc4ccccc4)CC3)n2)cc1 [CBK051457],89.7525
13,N#Cc1ccc(C(=O)N2CC[C@H]3NC(=O)N(c4ccccc4)C(=O)[C@H]32)cc1 [CBK289282],117.823
14,Cc1ccc(NS(=O)(=O)c2cc(C(=O)N3CCN(C)CC3)ccc2C)cc1C [CBK269268],112.09
15,O=C(Nc1nnc(-c2ccc3c(c2)OCCO3)o1)c1ccccc1F [CBK287405],115.064
16,COc1cccc(CNC(=O)CCc2nc3ccccc3[nH]2)c1 [CBK288003],103.694
17,Nc1ccc2ccc(-c3ccncc3)nc2n1 [CBK067622],97.3403
18,CN(C)c1nc(N2CCN(c3ccc(F)cc3)CC2)cc(C(F)(F)F)n1 [CBK007432],72.2231
19,CCC(=O)Nc1ccc(-c2csc(N3CCCC(C)C3)n2)cc1 (centres unmarked) [CBK306478],75.2266
20,O=C(CC1Oc2ccccc2NC1=O)Nc1ccc2c(c1)CN(Cc1ccccc1)C2 (centres unmarked) [CBK285991],111.314
21,NS(=O)(=O)c1ccc(NC(=O)CCCN2C(=O)/C(=C/c3ccc(Cl)cc3)SC2=S)cc1 [CBK261302],99.4206
22,CN(C)c1ccc(/C=C/CN2CCN(c3ccc([N+](=O)[O-])cc3)CC2)cc1 [CBK261904],100.45
23,COC(=O)c1sc2cc(C(F)(F)F)cnc2c1-c1cccnc1 [CBK089885],101.304
24,CCOc1ccc(C(=O)NC(=S)Nc2sc(C)c(C)c2C#N)cc1Cl [CBK268900],87.9387
25,CN1CCOC(CNc2nc(-c3ccncc3)nc3c2CCC3)C1 (centres unmarked) [CBK304890],16.1524
